Test results from PubChem BioAssay AID886 (National Center for Advancing Translational Sciences (NCATS), 2007).
About 2,500 (3.4%) of roughly 73,000 compounds were called active. Inconclusive means that the source gave no clear call. Such entries were picked first, then a sample of the others. Calls come from the whole dose curve; as a rule, active = well fitted inhibition curve with a large enough effect; inconclusive = small, poorly fitted or top-dose-only effect; inactive = no such curve, though single readings can be large or run the other way. A potency beside an inconclusive call is a rough fit, not a confirmed value.

Biological target: 3-hydroxyacyl-CoA dehydrogenase type-2 (Homo sapiens) (UniProt Q99714)
Sequence of UniProt Q99714 (Q99714 whole entry, looked up): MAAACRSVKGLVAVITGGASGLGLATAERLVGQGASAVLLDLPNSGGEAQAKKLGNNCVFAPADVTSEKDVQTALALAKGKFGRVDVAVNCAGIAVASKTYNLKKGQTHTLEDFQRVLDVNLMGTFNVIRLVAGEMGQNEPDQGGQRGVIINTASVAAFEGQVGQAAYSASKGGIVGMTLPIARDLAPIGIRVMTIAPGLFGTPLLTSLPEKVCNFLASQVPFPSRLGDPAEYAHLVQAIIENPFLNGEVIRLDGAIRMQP
Sequence of UniProt Q99714 (Q99714 whole entry, looked up): as above
Assay: qHTS Assay for Inhibitors of HADH2 (Hydroxyacyl-Coenzyme A Dehydrogenase, Type II); note: nearly all actives have a fitted effect of over 60% in size
Conditions: recombinant HADH2, NADH fluorescence, beta-hydroxybutyryl-CoA; activity change, negative = inhibition: at 57.1 µM (top of the series)
Outline: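 20 nM HADH2 + cpd, 15 min RT; add 1 mM NAD+/90 uM beta-hydroxybutyryl-CoA; kinetic fluorescence 360/450 nm, 4 min. Tris-HCl pH 9.0, 0.01% Tween-20.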
% is set by controls: 0 for no effect and ±100 for the full control effect; potency is the fitted concentration of half-maximal effect; tags give direction and shape of the fitted curve.

Compound | Potency | activity change, negative = inhibition
COc1ccccc1NC(=O)COc1ccc(CO)cc1Cl | inactive | –
COc1ccc(OC)c2c(C)cc(N3CCCN(C)CC3)nc12 | active: 25.1 µM | –
COc1ccc(N2CCN(c3ncnc4nc[nH]c34)CC2)cc1 | inconclusive: 39.8 µM [inhibitor, single point] | –
Cc1cccn2c(=O)c3cc(C(=O)N4CCN(C(=O)c5ccco5)CC4)n(C)c3nc12 | inconclusive: 39.8 µM [inhibitor, single point] | –
Cc1ccc2c(c1)c(C)c(C)n2CC(O)CN1CCCCC1C (stereo unspecified) | inconclusive: 31.6 µM [inhibitor, single point] | –
CC(=O)c1cccc(NC(=O)c2oc(C)nc2C)c1 | inconclusive: 31.6 µM [inhibitor, single point] | –
CCOC(=O)N1CCN(C(=O)c2cn(CC(C)C)c(=O)c3c2c2ccccc2n3C)CC1 | active: 25.1 µM | –
COc1ccc2cc(S(=O)(=O)N3CCOCC3)ccc2c1 | inconclusive: 31.6 µM [inhibitor, single point] | –
Cc1cc(C)nc(NC2=NCCN2C(=O)Nc2ccc(Cl)c(Cl)c2)n1 | inactive | –
COc1ccc(C(C(=O)OC(C)CN(C)C)c2ccccc2)cc1 (stereo unspecified) | inconclusive: 25.1 µM [inhibitor, single point] | –
COc1nc(-c2ccccc2)ccc1-c1noc(C)n1 | inactive | –
COCCn1c(=O)c(-c2ccc(F)cc2)nc2cnc(Oc3cccc(Cl)c3)nc21 | inconclusive: 6.31 µM [inhibitor, single point] | –
O=c1[nH]c2ccc(S(=O)(=O)N3CCN(C4CCCCC4)CC3)cc2[nH]c1=O | inconclusive: 39.8 µM [inhibitor, single point] | –
CC1CCCN(c2nc3ccccc3nc2C(C#N)C(=O)OC2CCCCC2)C1 (stereo unspecified) | inconclusive: 0.0398 µM [inhibitor, full curve] | –
CCOC(=O)c1nnc2cc(-c3ccccc3)nn2c1C | inconclusive: 31.6 µM [inhibitor, single point] | –
COc1cc2cc(CN(Cc3nnnn3Cc3ccccc3)CC3CCCO3)c(=O)[nH]c2cc1OC (stereo unspecified) | inconclusive: 39.8 µM [inhibitor, single point] | –
c1ccc(-n2ncc3c(N4CCN(c5ccccn5)CC4)nc(N4CCOCC4)nc32)cc1 | inconclusive: 39.8 µM [inhibitor, single point] | –
CCOC(=O)C(C)Oc1cccc2c(=O)n(CC(=O)N3CCN(C(=O)OCC)CC3)ccc12 (stereo unspecified) | inconclusive: 31.6 µM [inhibitor, single point] | –
O=C(COC(=O)CCC(=O)Nc1nccs1)NCc1ccco1 | inactive | –
CC(=O)OCC(=O)[C@@]1(O)[C@H](C)C[C@@H]2[C@H]3CCC4=CC(=O)C=C[C@]4(C)[C@]3(F)[C@@H](O)C[C@@]21C | inactive | –
CC(=O)c1c(N2CCN(c3cccc(Cl)c3)CC2)nc(=S)n(-c2ccccc2)c1C | inconclusive: 31.6 µM [inhibitor, single point] | –
COc1cccc(C(=O)N(Cc2cc3cc(C)ccc3[nH]c2=O)CC2CCCO2)c1 (stereo unspecified) | inactive | –
Cc1csc2ncc(C(=O)NCc3ccccn3)c(=O)n12 | active: 25.1 µM | –
O[C@@H](c1ccccc1)C1CCN(CCc2ccccc2)CC1 | inactive | –

Compound | Potency | activity change, negative = inhibition
CC1(N2CCOCC2)CC2(O)C(=[N+]1[O-])CCc1c2no[n+]1[O-] (stereo unspecified) | inconclusive: 20 µM [inhibitor, single point] | –
O=C(CCc1ccc(O)cc1)c1c(O)cc(O)cc1O[C@@H]1O[C@@H](CO)[C@@H](O)[C@@H](O)[C@H]1O | inconclusive: 39.8 µM [inhibitor, single point] | –
N#CCCn1c(-c2nonc2NC(=O)c2ccccc2Cl)nc2ccccc21 | inconclusive: 39.8 µM [inhibitor, single point] | –
COC(=O)C(C)Oc1ccc2c3c(c(=O)oc2c1)CCCCC3 (stereo unspecified) | inconclusive: 7.94 µM [inhibitor, single point] | –
Cc1cc(NS(=O)(=O)c2ccc(NC(=O)c3ccoc3C)cc2)nc(C)n1 | inactive | –
COc1ccc(OC)c(C(c2nnnn2C2CCCC2)N2CCN(c3ccccc3F)CC2)c1 (stereo unspecified) | inactive | –
CNC(=O)C1=NCCCc2cc(OC)c(OC)cc21 | inconclusive: 31.6 µM [inhibitor, single point] | –
c1cncc(-c2cncnc2NC2CCNCC2)c1 | inconclusive: 39.8 µM [inhibitor, single point] | –
Clc1cccc(-c2cc3nc4c(c(N5CCOCC5)n3n2)CCCC4)c1 | active: 31.6 µM | –
CC(=O)Nc1ccc(SCC(=O)N(CCC#N)c2ccc(C)cc2)cc1 | inconclusive: 6.31 µM [inhibitor, full curve] | –
COC(=O)c1ccc(CSc2nc3scc(-c4cccs4)c3c(=O)[nH]2)o1 | active: 10 µM | –
CCN(CC)C(=O)C1CCCN(C/C(C)=C/c2ccccc2)C1 (stereo unspecified) | inconclusive: 39.8 µM [inhibitor, single point] | –
CCC1C(=O)N=C(SCC(=O)Nc2cccc3ccccc23)NC1=O (stereo unspecified) | inconclusive: 39.8 µM [inhibitor, single point] | –
O=C(CSc1n[nH]c(-c2ccco2)n1)N1c2ccccc2Sc2ccccc21 | inconclusive: 25.1 µM [inhibitor, single point] | –
Cc1nc(N2CCN(Cc3ccc4c(c3)OCO4)CC2)c2oc3ccccc3c2n1 | inconclusive: 39.8 µM [inhibitor, single point] | –
N#Cc1cccc(-c2ccc3ncnc(NCc4cccnc4)c3c2)c1 | inconclusive: 39.8 µM [inhibitor, single point] | –
CCc1cc(N2CCOCC2)cc2c1[nH]c1ccccc12 | inconclusive: 31.6 µM [inhibitor, single point] | –
CC(=O)C1C(c2ccccc2OC(F)F)NC(=O)NC1(O)C(F)(F)F (stereo unspecified) | inactive | –
CCc1ccc(C(=O)CSc2ncn[nH]2)cc1 | inconclusive: 39.8 µM [inhibitor, single point] | –
CSc1ccccc1NC(=O)c1ccncc1 | inconclusive: 31.6 µM [inhibitor, single point] | –
O=C(Nc1ccccc1C(=O)Nc1ccccc1C(=O)NCc1ccco1)c1ccco1 | active: 39.8 µM | –
CCN(CC)S(=O)(=O)c1ccc2[nH]cc(C(=O)NCCN3CCCCC3C)c(=O)c2c1 (stereo unspecified) | inconclusive: 25.1 µM [inhibitor, partial curve] | –
O=C(c1ccncc1)N1CCC2(CCCN(c3ccccc3)C2)CC1 | inactive | –
CCn1c(=O)c2cc(C(=O)N3CCN(C(=O)c4ccco4)CC3)sc2c2ccccc21 | inconclusive: 5.01 µM [inhibitor, single point] | –

Compound | Potency | activity change, negative = inhibition
Nc1nnc(-c2cn(-c3ccccc3)nc2-c2ccccc2)o1 | inconclusive: 31.6 µM [inhibitor, single point] | –
CC(=O)Nc1nc(CC(C)C)cc(-c2ccco2)c1C#N | active: 25.1 µM | –
O=C(CSc1nnc(CNC(=O)c2cccs2)o1)c1ccc(Cl)cc1 | inconclusive: 12.6 µM [inhibitor, partial curve] | –
CCOC(=O)CSC1=C(C#N)C(c2ccccc2F)C(C(C)=O)=C(C)N1 (stereo unspecified) | inconclusive: 31.6 µM [inhibitor, single point] | –
COc1cccc(/C=N/n2cncn2)c1OCC#N | inconclusive: 39.8 µM [inhibitor, single point] | –
Cc1occc1C(=O)Nc1sc2c(c1C(N)=O)CCCCC2 | inconclusive: 3.98 µM [inhibitor, full curve] | –
CCOC(=O)c1c(NC(=O)CSc2nnc(-c3cccnc3)n2Cc2ccco2)sc(C)c1C | inconclusive: 39.8 µM [inhibitor, single point] | –
Clc1cc2c(c(CSC3=NCN(CC4CC4)CN3)c1)OCOC2 | – | inactive: 15.7% [at 11.4 µM]
O=c1[nH]c2sc3c(c2c2nncn12)CCCC3 | inactive | –
CNc1ccc(O)cc1 | inconclusive: 0.0631 µM [inhibitor, full curve] | –
COc1ccc(-c2cc(C(F)F)nc(-n3nc(C)cc3C)n2)cc1 | active: 31.6 µM | –
Cn1nnnc1SCCOc1ccc(C#N)cc1 | inconclusive: 5.01 µM [inhibitor, single point] | –
CCOC(=O)CCc1c(C)nc(SCC(=O)O)c(C#N)c1C | inconclusive: 10 µM [inhibitor, partial curve] | –
CCc1nnc(NC(=O)c2cccc(S(=O)(=O)N3CCc4ccccc43)c2)s1 | inconclusive: 39.8 µM [inhibitor, single point] | –
CSc1nc(SCC(=O)NCc2ccco2)c2c3c(sc2n1)COC(C)(C)C3 | inactive | –
Cc1cc2n(n1)C(c1ccccc1)Nc1ccccc1-2 (stereo unspecified) | inconclusive: 39.8 µM [inhibitor, single point] | –
Cc1nc(N2CCN(S(=O)(=O)c3cccc4nonc34)CC2)c2c3c(sc2n1)CCCC3 | inactive | –
O=C(O)CC[C@@H](C(=O)O)N1C(=O)c2ccccc2C1=O | inconclusive: 31.6 µM [inhibitor, single point] | –
O=C(NCc1ccco1)c1cc2ccc(O)cc2oc1=O | inconclusive: 5.01 µM [inhibitor, single point] | –
Cc1ccccc1C(=O)N1CCC(C(=O)Nc2cccc(F)c2)CC1 | inconclusive: 39.8 µM [inhibitor, single point] | –
CN1CCCC2(CCN(C(=O)c3cccc(F)c3)CC2)C1 | inactive | –
CC(CCc1ccccc1)NC(=O)CSc1nc(N)cc(N)n1 (stereo unspecified) | inactive | –
COc1ccc(-c2nc3oc4cc(OC)ccc4c(=O)c3c(=O)n2Cc2ccco2)cc1 | inconclusive: 39.8 µM [inhibitor, single point] | –
